Laboratory results as given in the supplement of paper PMC3334620.
The full ranking holds about 33,000 sequences; the median of “E-score (-0.5 to 0.5)” is about -0.01, and the highest 2% start at about 0.26. The list shows a part of the results.

target: Ste12 (UniProt P13574); assay: PBM E-score (8-mer binding enrichment) (E-score (-0.5 to 0.5)); higher = stronger / more preferred TF binding; most listed sequences are background and not binding sites; details: protein concentration: 200 nM; construct: GST-DNA-binding domain
Outline: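 Yeast transcription factors carrying a GST tag, as full-length proteins or DNA-binding domains, were produced by PURExpress in vitro transcription/translation. About 100-200 nM protein was applied to universal all-10-mer Agilent arrays, double-stranded by primer extension on fresh or once-stripped slides. Bound protein was detected with fluorescent anti-GST, and scans were normalised with masliner. The Universal PBM Analysis Suite gave each ungapped eight-base word, pooled with its reverse complement, an E-score, a modified Wilcoxon-Mann-Whitney statistic.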

Sequence	PBM E-score
ACGGACAA	0.0382
AGCAAACT	0.114
AGTAACTG	-0.013
CGTGTTGC	0.0401
CGATCGCG	0.128
GGCTGTTA	0.0481
GTAGAACA	-0.0742
GGCGACCA	-0.136
CACACAAG	0.0241
AACTAATT	0.0258
CGTCGTTA	-0.282
GCTTTCTA	0.182
CAATGTTA	0.0857
CGGGACAC	0.0126
ACAGCACT	-0.0837
TATACATA	0.134
CGAAGCAC	-0.0432
AAAACTGG	0.202
ACCTCGCC	-0.1
ACTGCATG	-0.0112
TCAGTTAA	0.125
GTCGGACA	-0.0157
TGGAGACA	-0.068
CAAGCAAA	0.108
CCATCTGA	0.0902

Sequence	PBM E-score
TTCAAAAA	0.298
TAAGCTTA	0.0706
CACACATC	-0.135
CCAGTGTA	-0.013
GCTTTAGA	-0.0332
AGGATATA	0.135
ACAGCATG	0.00216
AATAGCCT	-0.0125
ACTGGGGG	-0.257
AATTGCGG	0.112
GTTCGAGA	0.0223
ATAAAGCC	0.00222
CACAAGGA	0.0239
AGAATATG	0.174
GCCGTCAC	0.173
CTATTCTA	0.00544
AACTTCCT	0.0495
CAGTAGAA	0.0734
CGGGTGAC	-0.134
GCGACGCC	0.0944
CTTACAAC	0.0334
CTGAGCAG	-0.025
CGTTTACC	0.0996
GATCCAAC	-0.0314
CCCTATAG	-0.147

Sequence	PBM E-score
GTAGTAAC	-0.118
AACGCCGC	0.0583
CAGAACTC	-0.0265
AATGATGG	0.112
AATTCCCG	0.0685
AGGGACTA	-0.124
ATGGTGAC	-0.0986
AGGTATCC	-0.129
ACATACAC	0.0702
CAAGAATG	0.196
GATAACAC	0.108
ATCAGGGC	-0.308
GCGTGCGA	-0.107
GGAGGAAA	-0.062
GTGCTGCA	-0.143
CCCGGAGA	0.0998
CGTGAAAA	0.22
GCTGACGA	-0.106
CTTCATCA	-0.0587
CGATAGGC	0.0174
GTCTGCAC	-0.0368
TAGCTGAA	-0.00389
AGCTTAAG	-0.0476
AAAGAGCC	-0.192
ATGGCCTG	-0.246

Sequence	PBM E-score
CTTTGCTC	-0.0408
ATGAGATG	-0.0425
TACACTAA	-0.0223
ACATCACG	-0.0724
ACCGCCCC	0.348
CGATCAAC	-0.0827
GCTATATA	0.0653
CCCCGCTC	-0.0318
ACGGTCCA	-0.133
GGACACGA	-0.247
GGGTTTGA	0.18
ATTTCGGA	0.181
GTGTGTCA	0.321
GAAACCCC	0.204
AGGGCTGC	-0.199
CATCAGAA	0.0441
CAGCGATG	-0.0741
GAGCCAAC	-0.0708
GAGTTGAC	-0.124
ACCGGACT	-0.0995
CAGTCCTA	-0.345
AACTAGGC	-0.0922
CGCTTCCG	-0.0583
AGTTCCCG	-0.042
AGCAAGAA	0.0495

Sequence	PBM E-score
AAGGACCA	-0.178
ATATCGCA	-0.249
AGCGGGAT	0.0287
CGTGGTCA	0.00714
ATAAAATG	0.142
AATATTAC	0.118
ACTCTGGC	-0.0309
CAGTATCC	-0.0126
CGGATAAC	0.064
GAACCGAC	0.0126
GGGCGCAC	-0.163
CTCCCTAC	-0.0815
ATTGACGC	-0.0124
ACTTCGAA	0.0671
AGAGTCAT	0.0713
GCGCGTTA	-0.0248
AGCGTCAA	-0.00106
ATCATCGG	0.0208
ACCCCCAC	-0.222
TAAGGGGA	-0.0231
ATAACAAT	-0.00168
CGGTATTA	0.129
GGAAGAGA	-0.0805
CCGCCAGC	0.119
GAACGTCA	-0.212

Sequence	PBM E-score
AGGATGAC	-0.253
ATGGTCGA	-0.134
ACACGTGT	-0.0438
ACAGATGG	-0.086
GGAGACTA	-0.0305
CCGGGAGG	0.128
CGAAATGA	0.0829
CAGAAGGC	-0.0975
CTGTTGGA	0.0959
AGACAGAA	0.0471
ATTGAGTA	0.216
ATTTCATG	-0.0384
GATATGGC	-0.15
AGACCAAT	-0.0443
AGGGCGGG	0.296
TACTTGAA	0.0634
GCAGTACA	-0.0964
AAGGCCAG	0.128
AGCGTACT	-0.145
CTACCAAG	-0.135
ATATGTTG	0.0943
CAACGAAG	-0.219
GGAAATCA	-0.016
CCCCAAAG	0.00872
AGGTGCAA	-0.0336

Sequence	PBM E-score
GTCGAGAA	0.00889
ATGGACAG	-0.0851
ATATCTCC	0.15
GTGAAGAA	0.14
ATTAAAAG	0.137
ATAAAGAC	-0.0448
ACTTATAG	-0.0177
AAGCGAGT	0.117
AAACGCGA	0.24
GTCGCGTA	0.0487
ATCGCCAT	-0.0463
ATCCGCTC	-0.0924
CATCTTGG	-0.0368
CATCGGCA	0.0301
AGTGATAT	-0.143
CGAAGTAC	-0.174
GAAGGGGC	-0.0985
TGAGAACA	0.0626
ACACACAC	0.0546
CGAGAATA	0.155
GGATTACA	-0.0011
ACCGCAAA	-0.0527
